Measurements taken from the supplement of paper PMC4967469.
By IC50 is meant the dose at which the fit gives 50% viability; a fit beyond the top or the lowest dose is shown as a bound at that dose. AUC is the area under the same curve over the 256-fold range up to the top dose, as a fraction; the more sensitive the line, the further below 1. For some assays here: Any top dose called inferred comes from the curve model; the source does not state it. For some assays here: Where an entry number is given, a second screen of the drug exists; the two often differ.

How the values were obtained:
Assay in all cases: Viability of human cancer cell lines after 72 h of drug (GDSC screen)
[1] = compound: O=C(NC1CC1)c1cccc(-c2ccc3c(NC(=O)C4CC4)n[nH]c3c2)c1 [XMD13-2]; conditions: top dose 10.24 µM; top dose inferred
Description: (§1)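 Human cancer cell lines in 384-well plates, medium with 10% serum, drug for 72 h over a 256-fold dose range (nine 2-fold or five 4-fold steps up to the top dose). Adherent lines were fixed and stained with the nucleic acid dye Syto60, suspension lines read with resazurin; signal relative to control wells, capped at 0 and 100%. One two-parameter sigmoid per drug and line, fitted in a mixed model over all curves with the slope shared within a line.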

[2] = compound: CC[C@]1(O)C[C@@H]2CN(CCc3c([nH]c4ccccc34)[C@@](C(=O)OC)(c3cc4c(cc3OC)N(C)[C@H]3[C@@](O)(C(=O)OC)[C@H](OC(C)=O)[C@]5(CC)C=CCN6CC[C@]43[C@@H]65)C2)C1 [Vinblastine]; conditions: top dose 0.1 µM; top dose inferred
Description: as §1

[3] = compound: CN(c1ncccc1CNc1nc(Nc2ccc3c(c2)CC(=O)N3)ncc1C(F)(F)F)S(C)(=O)=O [PF-562271]; conditions: top dose 2.56 µM; top dose inferred
Description: as §1

[4] = compound: CC1(C)CC(=O)c2c(C(F)(F)F)nn(-c3ccc(C(N)=O)c(N[C@H]4CC[C@H](O)CC4)c3)c2C1 [SNX-2112]; conditions: top dose 2.56 µM
Description: as §1

[5] = compound: CN(C)C/C=C/C(=O)Nc1cc2c(Nc3ccc(F)c(Cl)c3)ncnc2cc1O[C@H]1CCOC1 [Afatinib]
Description: as §1

[6] = top dose 0.5 µM, screen: GDSC drug entry 1032
[7] = top dose 10 µM, screen: GDSC drug entry 1377, top dose inferred

Cell Line | AUC [1] | IC50 [1] [nM] | AUC [2] | IC50 [2] [nM] | AUC [3] | IC50 [3] [nM] | AUC [4] | IC50 [4] [nM] | AUC [5, 6] | IC50 [5, 6] [nM] | AUC [5, 7] | IC50 [5, 7] [nM]
RERF-LC-MS (lung adenocarcinoma, adherent) | 0.983 | > 10200 | 0.658 | 17.4 | 0.927 | > 2560 | 0.609 | 322 | 0.975 | > 500 | 0.985 | > 10000
JM1 (B-cell lymphoma, suspension) | 0.836 | 5460 | 0.599 | 11.2 | 0.917 | > 2560 | 0.28 | 42.5 | 0.989 | > 500 | 0.988 | > 10000
SK-MM-2 (myeloma, suspension) | 0.927 | > 10200 | 0.985 | > 100 | 0.949 | > 2560 | 0.488 | 148 | 0.987 | > 500 | 0.986 | > 10000
H2795 (mesothelioma, adherent) | 0.983 | > 10200 | 0.482 | 5.57 | 0.983 | > 2560 | 0.648 | 409 | 0.94 | > 500 | 0.986 | > 10000
JHH-4 (liver, adherent) | 0.986 | > 10200 | 0.925 | > 100 | 0.951 | > 2560 | 0.84 | 1750 | 0.976 | > 500 | 0.952 | > 10000
TE-12 (oesophagus, suspension) | 0.976 | > 10200 | 0.846 | 97.7 | 0.899 | > 2560 | 0.899 | > 2560 | 0.774 | 240 | 0.81 | 6690
HT-3 (cervix, adherent) | 0.966 | > 10200 | 0.741 | 30.9 | 0.876 | > 2560 | 0.803 | 1300 | 0.894 | > 500 | 0.846 | 7470
COLO-205 (large intestine, suspension) | 0.843 | 7090 | 0.61 | 12.5 | 0.672 | 479 | 0.361 | 66.5 | 0.986 | > 500 | 0.979 | > 10000
BC-1 (B-cell lymphoma, suspension) | 0.61 | 1220 | 0.779 | 34.7 | 0.856 | 1590 | 0.303 | 49.4 | 0.99 | > 500 | 0.864 | 6660
SNU-C1 (large intestine, suspension) | 0.978 | > 10200 | 0.797 | 75 | 0.902 | > 2560 | 0.867 | > 2560 | 0.973 | > 500 | 0.943 | > 10000
SK-MES-1 (lung squamous cell carcinoma, adherent) | 0.953 | > 10200 | 0.564 | 9.51 | 0.871 | > 2560 | 0.809 | 1490 | 0.815 | 307 | 0.816 | 6150
JHH-6 (liver, adherent) | 0.987 | > 10200 | 0.652 | 16.6 | 0.905 | > 2560 | 0.872 | 2520 | 0.987 | > 500 | 0.985 | > 10000
MDA-MB-330 (breast, adherent) | 0.982 | > 10200 | 0.855 | 98.1 | 0.981 | > 2560 | 0.666 | 496 | 0.774 | 224 | 0.821 | 6860
GI-1 (glioma, adherent) | 0.916 | > 10200 | 0.468 | 5.14 | 0.911 | > 2560 | 0.314 | 49.5 | 0.986 | > 500 | 0.966 | > 10000
SW1710 (bladder, adherent) | 0.924 | > 10200 | 0.516 | 6.94 | 0.833 | 1720 | 0.633 | 377 | 0.965 | > 500 | 0.887 | > 10000
BFTC-905 (bladder, adherent) | 0.887 | 8670 | 0.416 | 3.81 | 0.912 | > 2560 | 0.562 | 230 | 0.99 | > 500 | 0.938 | > 10000
NOMO-1 (acute myeloid leukaemia, suspension) | 0.889 | > 10200 | 0.289 | 1.45 | 0.904 | > 2560 | 0.283 | 35.4 | 0.93 | > 500 | 0.809 | 6100
NCI-H2172 (non-small cell lung carcinoma, adherent) | 0.983 | > 10200 | 0.938 | > 100 | 0.906 | > 2560 | 0.97 | > 2560 | 0.981 | > 500 | 0.974 | > 10000
PCI-4B (head and neck, adherent) | 0.909 | > 10200 | 0.45 | 4.6 | 0.886 | > 2560 | 0.331 | 55.6 | 0.437 | 21.2 | 0.526 | 733
RVH-421 (melanoma, adherent) | 0.969 | > 10200 | 0.462 | 4.73 | 0.827 | 2430 | 0.678 | 608 | 0.976 | > 500 | 0.915 | > 10000
CAPAN-1 (pancreas, adherent) | 0.973 | > 10200 | 0.795 |  | 0.948 | > 2560 | 0.589 | 289 | 0.953 | > 500 | 0.955 | > 10000
NCI-H2009 (lung adenocarcinoma, adherent) | 0.975 | > 10200 | 0.665 | 18.5 | 0.909 | > 2560 | 0.89 | > 2560 | 0.976 | > 500 | 0.978 | > 10000
Hs766T (pancreas, adherent) | 0.981 | > 10200 | 0.838 | > 100 | 0.971 | > 2560 | 0.973 | > 2560 | 0.976 | > 500 | 0.965 | > 10000
D-336MG (glioma, adherent) | 0.857 | > 10200 | 0.538 | 8.19 | 0.79 | 1520 | 0.499 | 158 | 0.968 | > 500 | 0.926 | > 10000
